# Source: the RNAGym collection of RNA variant scans (doi:10.7554/elife.90254)
# Read counts are not given, so values of variants with three or more changes are uncertain.
# B1: LINE1-mini (parent)
# chain: GGCAGAGCUCAACACAGCGUGGCAAAGUGGCUGUGGCUAGACUGCC
# Variants of: B1
# Test: self-cleavage, relative activity (ratio to wild type); higher = more cleavage; in vitro, sequencing; the parent is a self-cleaving ribozyme
row,Variant,self-cleavage
1,GGCAGAGCUCAGCACCGCGUGGCAAAGUGGCUGUGGCUAAACUGCC [A12G A16C G40A],0.01
2,CGCAAAGCUCCACACACCGUGGCAAACUGGCUGUGGCUAGACUGCC [G1C G5A A11C G17C G27C],0
3,GGCAGAGCUCAACACAGCACGGCAAAAUGGCUGUGGCUUGACUGCC [G19A U20C G27A A39U],0.05
4,GGCAGAGCUCAACACAGCGGGGCAAAGCGGCUGUGGCCAGACUCCC [U20G U28C U38C G44C],0
5,GGCAGAGCGCAACACAGCGUGGCAACGCGGCUGUGGCUAGACUGCC [U9G A26C U28C],0.04
6,GGCUGAGCUCAACACAGCGUGGCACAGUGGCUAAGGCCAGACUGCC [A4U A25C G33A U34A U38C],0.02
7,GGCGGAACUCAACACAGCGUGGCAAAGUGGCUGUGGCCAGACUCCC [A4G G7A U38C G44C],0.21
8,GGCAGAGCGCAACCCAGCGUGGCAAAGUGGUUGUGGCUAGACUGCC [U9G A14C C31U],0.01
9,GUCAGAGCUCAACACUGCCUGGCAAAGUGGCUGUGGCUAGACUGCC [G2U A16U G19C],0.02
10,GGCAGAGCUCCACACAGCGUGGCAAAGUGGCUGUGGCUUGAUUACC [A11C A39U C42U G44A],0.01
11,GGCAGAGCUCAACACAACGUGGCAAAGGGGCCGUGGCUAGACUGCC [G17A U28G U32C],0.2
12,GGCAGAGCUUAACACAGCGUGGCAAAGUUACUGUGGCUAGACUGAC [C10U G29U G30A C45A],0.11
13,GGCAGAGCUCAACACAGCCUGGCAAAGUGGCUUCGGCUAGACUGCA [G19C G33U U34C C46A],0.11
14,GUCAGAGCUCAACACAAGGUGGCAAAGUGGCUGUGGCCAGACUGCC [G2U G17A C18G U38C],0.03
15,GACAGAGCUCAACACAGCGUGGCAAAAUGGCUGUGGCUACACUUCC [G2A G27A G40C G44U],0.05
16,GGCAGAGCUCAAGACAGCGUGGUAAAGUGGCUGUGGCUAGACUUCC [C13G C23U G44U],0.03
17,GGCAGACCUCAACACAGCGUGGCAAAGUGGCGUUGGGUAGACUGCC [G7C U32G G33U C37G],0.06
18,GGCAGAGCUCAAGAGAGCGUGGCAAACUGGCUGGGGCAAGACUGAC [C13G C15G G27C U34G U38A C45A],0.03
19,GGCAGAGCUCAACACAGCGUGUCAAAGUAGCUGUGGUUAGACUGCC [G22U G29A C37U],0

row,Variant,self-cleavage
1,GGCAGAGGUCACCACCGCGUGGCUAAGUGGCUGUGGCUAGACUGCC [C8G A12C A16C A24U],0
2,GGCAGAGCUCAACACAGCGUGGAAAAGUGGCUGUGUCUAGACUACC [C23A G36U G44A],0
3,GGCAGAGUUCAACAGAGCGUGGCAAAGUGACUGUGGCAAGACUGCC [C8U C15G G30A U38A],0.23
4,GGCAUAGCUCAACACAGCGUGGCAAAGUGGCUGUGGCUAAACUGGC [G5U G40A C45G],0.03
5,GGCAGAGCUCAACAUAGCGUGGCAAAGUGAGUGGGGCUAGACUGCC [C15U G30A C31G U34G],0.01
6,GGCAGACCUCAACACAGUGGGUCAAAGUGGCUGUGGCUAGACUGCC [G7C C18U U20G G22U],0.04
7,GGCAGAGCUCAAGACAGCGUGGCAAAGUGGCUGUGGCUACACUGCA [C13G G40C C46A],0.07
8,GGCAGAGCUCAACACAGCGUGGCAAUGUGGCUGUGCAUAGACUGCC [A26U G36C C37A],0
9,GUCAGAGCUCAAAACAGCGUGGCAAAGUGGCUGUUGCUAGACUGCC [G2U C13A G35U],0.03
10,GGCAGAGGUCAACAGAGCGUGGCAAAGUGGCUGUGUCUAGACUGCC [C8G C15G G36U],0.06
11,GGCAGAGAUUAACAAAGCGUGGCAAAGUGACUGUGGCUAGUCUGCC [C8A C10U C15A G30A A41U],0.11
12,GGCGGAGCUCAACACAGCUUGGCAAAGUGGCUGUGGAUAUACUGCC [A4G G19U C37A G40U],0.44
13,GGCAGAGCUCAACACAGCGUGGCAAAGAGGCUUUGGCUAUAGUGCC [U28A G33U G40U C42G],0.08
14,GGCAGAGCUCAACACUGCGUGGCAAGGUCGCUGUGGCUAGACUGCC [A16U A26G G29C],0.71
15,GGCAGACCUCAACACAGCGUGGCAAAGAGGCAGUGGCUAGACUGCC [G7C U28A U32A],0.05
16,GGCAGAUUUCAACACAGGGUGACAAAUUGGCUGGGGCUAGACUGCC [G7U C8U C18G G22A G27U U34G],0.02
17,GGCAGAGCUCAACACAGCGUGGCAAAGUGGUUGUGGCUAGAAUACC [C31U C42A G44A],0.09
18,GGCUGAGCUCAGCAUAGCGUGGCGAAGUGGCUGGGGCUAGACUGGC [A4U A12G C15U A24G U34G C45G],0.01
19,GGCAGAGCUUAACACAGCGUGGCAAAGGGGCUGUGGCUAGUCUGCC [C10U U28G A41U],0.03

row,Variant,self-cleavage
1,GGCAGAGCUCAACACAGCCUGGCAAAGUGGCUGUGCCUAGACUGAC [G19C G36C C45A],0.03
2,GGCAGAGCGCAACACAGCGUUGCAAGGUGGCUGUGCCUAGACUGCC [U9G G21U A26G G36C],0
3,GGCGGAGCUCGACACAGCGUGGCCAAGUGGCUGUGGCUAGACUGCC [A4G A11G A24C],0.02
4,GGCGGAGCUCAACACAGCGUGGCAGAGUGGCUGUGGCAAAACUGCU [A4G A25G U38A G40A C46U],0.02
5,GGCAGGGCUCAACACAGCGUGGCAAAGUGGCUGUGGCUAGACCCUC [A6G U43C G44C C45U],0.06
6,GGCAGAGAUUAACACAGCGUGGCAAAGUGGCGGAGGCUAGACAGCC [C8A C10U U32G U34A U43A],0.04
7,GGCAGAGCUCAACACAGCGUGGUAAAGUGGCUGUGGGUUGACUGCC [C23U C37G A39U],0.02
8,GGCAGAGCUCAAUACAGCGUGCCAAAAUGGCUGUGGCUAGACUGCC [C13U G22C G27A],0.06
9,GGCAGAGCUCAACACAGCGUGGCAAAGUGGCUAUAGCUAGACUCCC [G33A G35A G44C],0.08
10,GGCAGACCUCAACACAGCGUGGCAAUGUGGCAGUGACUAGACUGCC [G7C A26U U32A G36A],0.06
11,GGCAGAGUUCAACACAGCGUGGCAUGGUGGCUGUGGCUAGACAGCC [C8U A25U A26G U43A],0.16
12,GGCCGAGCUUAACACAGCGUGCCAAAGUGGCUGUGGCUAGACUGCC [A4C C10U G22C],0.03
13,GGCAGAGCUCAACACAGCGUGGCAAAGUGGCUGUCGCUUGACUGCU [G35C A39U C46U],0.05
14,GCCAGAGCUCAACACAGCGUGGCAAAGUGGCUGUGGCUAAACAGCC [G2C G40A U43A],0.07
15,GGCAGAGCUCAACACAGCGUGGCAAAGUGGCUGUUGUGAGACUGCC [G35U C37U U38G],0.06
16,GGAAGAGCUCAACACAUCGCGGCAAAGUGGCUGUGGUUAGAAUGCC [C3A G17U U20C C37U C42A],0.26
17,GCCAGAGCUCAACACAGCGUGUCAAAGUGGCUGUAGCUAGACUACC [G2C G22U G35A G44A],0.02
18,UGCAGAGCUUAACACGGCGUCGCAAAGUGGCUGUAGCUUGACUGCC [G1U C10U A16G G21C G35A A39U],0.02
